Experimental data from the supplement of paper PMC3334620.
In all, about 33,000 sequences were measured (“E-score (-0.5 to 0.5)”: median about -0.032, highest 2% from about 0.36 on). The list shows a part of the results.

What follows are sequences tested against T1, Sko1 (UniProt Q02100) (assay: PBM E-score (8-mer binding enrichment) (E-score (-0.5 to 0.5)); higher = stronger / more preferred TF binding; most listed sequences are background and not binding sites). Conditions: protein concentration: 200 nM; construct: GST-full length.
T1 sequence: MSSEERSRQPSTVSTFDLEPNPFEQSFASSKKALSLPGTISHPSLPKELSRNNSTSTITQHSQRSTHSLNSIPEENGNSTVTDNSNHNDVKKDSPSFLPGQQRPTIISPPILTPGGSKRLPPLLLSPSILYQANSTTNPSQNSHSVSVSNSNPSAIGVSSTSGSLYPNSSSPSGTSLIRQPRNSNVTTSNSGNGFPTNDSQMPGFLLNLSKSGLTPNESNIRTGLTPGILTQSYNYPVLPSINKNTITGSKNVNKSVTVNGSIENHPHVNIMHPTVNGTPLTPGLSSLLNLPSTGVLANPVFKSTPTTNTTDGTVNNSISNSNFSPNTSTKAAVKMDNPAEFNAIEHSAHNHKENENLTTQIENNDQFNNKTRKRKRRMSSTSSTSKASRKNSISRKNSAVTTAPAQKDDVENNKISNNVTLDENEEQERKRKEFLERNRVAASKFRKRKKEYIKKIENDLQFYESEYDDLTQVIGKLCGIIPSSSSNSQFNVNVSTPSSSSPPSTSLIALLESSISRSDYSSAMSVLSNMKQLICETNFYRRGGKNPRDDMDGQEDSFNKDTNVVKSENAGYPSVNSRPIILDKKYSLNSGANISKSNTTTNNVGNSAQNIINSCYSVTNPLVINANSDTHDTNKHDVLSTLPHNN
In short: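 Masliner-normalised scans of fluorescent anti-GST signal were the basis for scoring. That signal came from GST-tagged yeast transcription factors applied at about 100-200 nM to double-stranded universal all-10-mer Agilent arrays on fresh or once-stripped slides. Each ungapped eight-base word, pooled with its reverse complement, received an E-score from the Universal PBM Analysis Suite.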

Sequence	PBM E-score
ACAAAGTG	-0.116
CTCATAGA	0.00332
AGATAATG	0.194
CGTTTGCC	0.0429
ATGAGGAC	-0.11
GCCATCGC	-0.172
ATTATTAA	0.168
TGAAAAAA	0.199
CACGCCGG	-0.211
GCATCACC	-0.029
TTCCTAAA	-0.0368
GGTGACAA	0.183
AGAAGTCC	-0.214
CCGGCCGG	-0.373
CAATACGC	0.287
CTGAACGC	-0.164
AGGTGAGG	-0.192
CCCGGCAA	-0.317
GCCCTGCC	-0.392
GCTTGCCA	0.0866
AGCGCGCT	-0.13
TCGGCGAA	-0.155
ACTACTAG	0.0563
AGGTATTA	0.17

Sequence	PBM E-score
ATTAAGTC	0.118
CATAATCG	0.156
CTACCGCA	-0.122
AAGAGGTG	-0.0886
ACTCTAAA	0.139
CTGAAGTC	-0.0215
CAAGAACA	0.0791
GGTATGTA	0.0659
ATCTCCGC	-0.0384
ACCCATCT	-0.0673
CCACTTGC	-0.163
ACGAGGGA	0.044
CGCAAAGC	0.0256
CTCCGAAA	-0.00015
GAGATGGA	-0.0954
AAATGAAA	0.243
AGGCTTAA	-0.12
CGTCGGAA	0.172
CGACTCGA	-0.254
AGCCCATA	-0.0733
GACTGTGA	0.0327
AGGATTCC	-0.272
CTAGATGC	0.0449
CCATCTCC	-0.128

Sequence	PBM E-score
GGCCGCCA	-0.252
AGCTCTTA	0.0315
AGGAACCT	-0.246
ATAGGCAA	-0.0944
ACTCGCTC	-0.14
ATGTTATA	0.209
CTCAGGAA	-0.138
GATTAGGA	-0.064
CTGAGACA	-0.225
TTAAGCAA	0.0549
AGTTTAAG	-0.0465
CCGCGTTA	0.00254
ATCCAGTG	0.111
GCCGGACA	-0.123
ACGTCGGG	0.159
TAATTCTA	0.227
GCGCTCGA	-0.132
CTCCTGGA	-0.351
AGATAGTC	-0.0988
AAAAGGTT	-0.176
ATTCATCC	0.0207
CAGTGATC	-0.125
CCCTGAGG	-0.294
CCATAATA	0.128

Sequence	PBM E-score
TCTAGAGA	-0.275
CGTATTAG	0.382
GCGGGAAA	-0.104
GAATTACA	0.132
ATGTCGGA	-0.129
AGATCGAA	0.0696
GGCTGAAA	-0.106
CTCTCGCC	-0.29
AGTGGCCG	-0.316
CGTGACCC	0.0906
GTTTCTTA	0.117
CCCATCGC	-0.232
ACGGTTAT	0.0459
CAATGAGA	-0.00417
ACCGTCCT	-0.101
CCTTGGAG	-0.122
ACCAGGTA	-0.291
AAATTGGA	0.0977
AACGATTG	0.149
AGGTAGTG	-0.0666
GAGAAACA	0.0515
CGGAGGGA	-0.377
